# Measured values published in the supplement of paper PMC8728848.
# This is one part of the list.
# B1: LICBM33A (Lactococcus lactis), Q9CE94 (protein)
# chain: MKKLLTGLLVAAGLLSVSLLIKTDTVSAHGYVQSPPARGYQGQLDSQSLGWTAAFNIYGNVISNPQSLEAPKGFPECGPADGRIASANGGLGQIGDFVLDNQTSSRWKKTSISTGSNIFTWKYTAPHKTTKWHYYMTKTGWDQNAPLKHSELELIGTINHDGSPATNNLSHTINIPTDRSGYHIVLAVWDVADTSNAFYNVIDINVNNKNASSQVFGPFL
# Legend:
# Test in all cases: glycan array binding signal (z-score within array); higher = stronger binding
# Conditions in all cases: glycan notation: IUPAC condensed, linker removed
# [1] = molecular target: Neu5Gc(a2-8)Neu5Gc(a2-3)Gal(b1-4)GlcNAc(b1-3)Gal(b1-4)GlcNAc
# How it was run: (§1)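 Glycan array binding is given as a within-array Z-score, which can be read as non-binding when negative. The arrays, 3228 of them, came from the Consortium for Functional Glycomics database and were retained only where the protein sequence was available. Z-scores were averaged across arrays of the same protein sequence at different concentrations or buffers and across linkers.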
# [2] = molecular target: Neu5Gc(a2-8)Neu5Gc(a2-6)Gal(b1-4)GlcNAc
# How it was run: as §1
# [3] = molecular target: Neu5Gc(b2-6)Gal(b1-4)GlcNAc
# How it was run: as §1
binder,measurement,setting,value
B1,glycan array binding signal (z-score),[1],0.409
same,glycan array binding signal (z-score),[2],-0.539
same,glycan array binding signal (z-score),[3],-0.197
